Results as given in PubChem BioAssay (Tox21).
Inconclusive results, whose numbers are uncertain, are shown with a selection of clear calls. For some of these results: A potency beside an inconclusive call is a rough fit, not a confirmed value. Where a structure was tested more than once in an assay, its records may differ in their call. Activity calls are given as the source filed them. Unless noted, calls follow the shape of the dose curve; as a rule, active = well fitted curve in the direction sought with a large enough effect in the repeat runs; inconclusive = weak or mixed curves; inactive = no such curve, though single readings can be large; an effect the other way counts as inactive or inconclusive.

What was measured:
[1] = qHTS assay for small molecule agonists of the p53 signaling pathway (AID 651631; calls by dose curve; also: nearly all actives have a fitted effect of over 15% in size; also: potency is read from the fitted curve at half-maximal effect; as to activation: % is scaled to controls: 0 for no effect and ±100 for the full control effect); conditions: HCT-116 p53RE-bla reporter, beta-lactamase FRET ratio, 16 h; activation: at 73.3 µM (top of the series) unless noted
In short: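 Fluorescence intensity from cleaved LiveBLAzer B/G substrate (2 h, room temperature) served as the signal. Beforehand, HCT-116 reporter cells bearing p53 response elements were treated 16 h at 37 °C with DMSO-dissolved compounds.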

[2] = target: Estrogen receptor (Homo sapiens) (UniProt P03372); test: qHTS assay to identify small molecule antagonists of the estrogen receptor alpha (ER-alpha) signaling pathway (AID 743069; active = well fitted curve in the direction sought with a large enough effect in the signal ratio in the repeat runs, not every such curve was filed as active; inconclusive = weak or mixed curves, or effect the other way; inactive = no such curve, though single readings can be large or run the other way; the % refers to the signal ratio; also: potency is read from the fitted curve at half-maximal effect); conditions: HEK293 ER-alpha-UAS-bla, beta-lactamase ratio, antagonist mode; activity, negative = inhibition: at 69.4 µM (top of the series) unless noted
Chain of UniProt P03372 (P03372 whole entry, looked up): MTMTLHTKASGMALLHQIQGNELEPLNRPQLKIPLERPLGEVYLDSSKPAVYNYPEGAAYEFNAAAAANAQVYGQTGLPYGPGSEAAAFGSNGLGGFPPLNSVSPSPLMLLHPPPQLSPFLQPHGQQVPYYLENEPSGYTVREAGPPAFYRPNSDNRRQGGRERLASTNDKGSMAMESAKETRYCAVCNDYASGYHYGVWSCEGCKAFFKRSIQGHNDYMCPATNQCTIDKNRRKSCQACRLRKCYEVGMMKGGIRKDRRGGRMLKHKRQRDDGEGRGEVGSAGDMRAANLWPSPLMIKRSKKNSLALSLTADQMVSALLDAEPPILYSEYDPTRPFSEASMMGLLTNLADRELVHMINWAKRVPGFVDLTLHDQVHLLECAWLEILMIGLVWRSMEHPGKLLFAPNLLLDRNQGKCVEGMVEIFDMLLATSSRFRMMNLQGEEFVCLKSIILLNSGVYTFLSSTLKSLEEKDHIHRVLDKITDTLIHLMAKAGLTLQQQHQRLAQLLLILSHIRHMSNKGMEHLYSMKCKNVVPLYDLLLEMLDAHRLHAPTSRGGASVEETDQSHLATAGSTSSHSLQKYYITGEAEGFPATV
In short: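 HEK293 ER-alpha-UAS-bla GripTite cells, held overnight in 2% charcoal-stripped FBS, 5,000 cells/well, preincubated 4 h, then compound plus 17beta-estradiol for 18 h at 37C. Beta-lactamase read by LiveBLAzer B/G FRET substrate, 2 h at room temperature.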

[3] = qHTS assay to identify small molecule antagonists of the vitamin D receptor (VDR) signaling pathway - cell viability counter screen (AID 743225); conditions: VDR-bla HEK293T viability, CellTiter-Glo luminescence, 16 h; viability change, negative = cytotoxic: at 61 µM (top of the series) unless noted; also: % is scaled to controls: 0 for no effect and ±100 for the full control effect; nearly all actives have a fitted effect of over 50% in size
In short: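 Cytotoxicity toward the VDR-bla HEK 293T line was scored by ATP-based CellTiter-Glo luminescence, read in the wells already used for the beta-lactamase readout after 16 h compound treatment under 3 nM 1-alpha,25-dihydroxyvitamin D3 stimulation.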

[4] = qHTS assay to identify small molecule agonists of the constitutive androstane receptor (CAR) signaling pathway - cell viability counter screen (AID 1224836); also: nearly all actives have a fitted effect of over 45% in size; also: potency is read from the fitted curve at half-maximal effect; as to viability change, negative = cytotoxic: % is scaled to controls: 0 for no effect and ±100 for the full control effect
In short: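 Fluorescence from CellTiter-Fluor indicates live cells after 23 h exposure. The human hepatoma line expresses hCAR and a CYP2B6-2.2kb reporter. Incubation medium contains 0.75 uM PK11195 (final).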

[5] = qHTS assay to identify small molecule agonists of H2AX - cell viability counter screen (AID 1224847; calls by dose curve; also: nearly all actives have a fitted effect of over 30% in size; also: potency is read from the fitted curve at half-maximal effect)
In short: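 Viability of CHO-K1 (wild type) cells after 3 hr compound exposure was measured by CellTiter-Glo luminescence.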

[6] = qHTS RealTime-Glo MT Cell Viability Assay in HEK293 cells - 32 hour (AID 1224868); also: potency is read from the fitted curve at half-maximal effect; nearly all actives have a fitted effect of over 50% in size
In short: (§1)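 HEK293 cells seeded with NanoLuc/prosubstrate reagent, rested 5 h at 37 C, then dosed and kept at 37 C up to 40 h. Nonlytic real-time luminescence from viable cells read at 0, 8, 16, 24, 32 and 40 h.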

[7] = qHTS RealTime-Glo MT Cell Viability Assay in HEK293 cells - 24 hour (AID 1224886); also: nearly all actives have a fitted effect of over 50% in size; also: potency is read from the fitted curve at half-maximal effect
In short: as §1

[8] = qHTS assay to identify small molecule antagonists of the sonic hedgehog signaling (Shh) pathway (AID 1259369; calls by dose curve; also: nearly all actives have a fitted effect of over 45% in size; also: potency is read from the fitted curve at half-maximal effect)
In short: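 Screening used 3T3Gli1-Luc cells at 2,000 per well, compounds delivered in DMSO, and conditioned medium as agonist stimulus; plates incubated 24hr at 37 C and 5% CO2 before a 30min luciferase step.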

[9] = qHTS assay to identify small molecule antagonists of the progesterone receptor (PR) signaling pathway - cell viability counter screen (AID 1346798); also: potency is read from the fitted curve at half-maximal effect; nearly all actives have a fitted effect of over 50% in size
In short: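 Viability was determined by ATP-based luminescence (CellTiter-Glo) in PR-UAS-bla HEK293T cells cultured in 2% charcoal-stripped serum and incubated 16 hr with compounds under R5020 stimulation.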

[10] = qHTS assay to identify small molecule agonists of the progesterone receptor (PR) signaling pathway - cell viability counter screen (AID 1346799; calls by dose curve; also: nearly all actives have a fitted effect of over 45% in size; also: potency is read from the fitted curve at half-maximal effect; as to activity change, negative = cytotoxicity: % is scaled to controls: 0 for no effect and ±100 for the full control effect)
In short: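 Viability was scored by ATP luminescence (CellTiter-Glo, 30 min, room temperature) in the same wells used for the reporter readout, after 16 hr compound exposure of PR-UAS-bla HEK293T cells.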

[11] = qHTS assay for identifying genotoxic compounds that show differential cytotoxicity against isogenic chicken DT40 cell lines with known DNA damage response pathways - Rad54/Ku70 mutant cell line (AID 743015); conditions: DT40 Rad54/Ku70 mutant viability, CellTiter-Glo, 40 h; activity change, negative = cytotoxicity: at 66.8 µM (top of the series); also: potency is read from the fitted curve at half-maximal effect; nearly all actives have a fitted effect of over 60% in size
[12] = qHTS RealTime-Glo MT Cell Viability Assay in HEK293 cells - 16 hour (AID 1224872)
In short: as §1

[13] = target: Cytochrome P450 3A4 (Homo sapiens) (UniProt P08684); test: Cytochrome P450 Family 3 Subfamily A Member 4 (CYP3A4) small molecule antagonists: luciferase reporter qHTS assay (AID 1671201)
Chain of UniProt P08684 (P08684 whole entry, looked up): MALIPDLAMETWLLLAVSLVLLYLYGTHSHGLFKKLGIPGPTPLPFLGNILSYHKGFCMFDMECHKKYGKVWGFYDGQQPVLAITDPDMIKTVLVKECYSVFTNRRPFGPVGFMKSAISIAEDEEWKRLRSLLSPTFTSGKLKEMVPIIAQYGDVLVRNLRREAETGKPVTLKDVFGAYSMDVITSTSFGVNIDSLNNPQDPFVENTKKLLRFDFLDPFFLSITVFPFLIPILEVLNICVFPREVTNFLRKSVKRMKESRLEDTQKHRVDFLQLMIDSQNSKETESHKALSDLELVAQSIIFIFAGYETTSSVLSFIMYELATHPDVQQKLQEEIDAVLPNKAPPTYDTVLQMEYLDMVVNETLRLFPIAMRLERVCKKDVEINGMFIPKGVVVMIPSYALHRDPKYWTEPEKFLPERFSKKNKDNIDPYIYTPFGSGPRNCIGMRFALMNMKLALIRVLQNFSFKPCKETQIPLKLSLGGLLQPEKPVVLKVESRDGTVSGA
In short: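 Enzyme and proluciferin substrate are mixed with test chemicals for 10 min, then NADPH regeneration system drives turnover for 1 h at room temperature. A detection reagent halts the reaction; luminescence after 20 min gives relative activity.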

[14] = target: Peroxisome proliferator-activated receptor delta (Homo sapiens) (UniProt Q03181); test: qHTS assay to identify small molecule antagonists of the peroxisome proliferator-activated receptor delta (PPARd) signaling pathway (AID 743215; active = well fitted inhibition curve with a large enough effect in the signal ratio in the repeat runs, not every such curve was filed as active; inconclusive = weak or mixed curves, or effect the other way; inactive = no such curve, though single readings can be large or run the other way; the % refers to the signal ratio;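 also: cells stimulated with agonist L165041 at 300 nM final during compound exposure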; also: potency is read from the fitted curve at half-maximal effect; as to ratio activity, negative = inhibition: % is scaled to controls: 0 for no effect and ±100 for the full control effect); conditions: HEK293H PPARd-UAS-bla, beta-lactamase FRET ratio, antagonist, 17 h; ratio activity, negative = inhibition: at 62 µM (top of the series) unless noted
Chain of UniProt Q03181 (Q03181 whole entry, looked up): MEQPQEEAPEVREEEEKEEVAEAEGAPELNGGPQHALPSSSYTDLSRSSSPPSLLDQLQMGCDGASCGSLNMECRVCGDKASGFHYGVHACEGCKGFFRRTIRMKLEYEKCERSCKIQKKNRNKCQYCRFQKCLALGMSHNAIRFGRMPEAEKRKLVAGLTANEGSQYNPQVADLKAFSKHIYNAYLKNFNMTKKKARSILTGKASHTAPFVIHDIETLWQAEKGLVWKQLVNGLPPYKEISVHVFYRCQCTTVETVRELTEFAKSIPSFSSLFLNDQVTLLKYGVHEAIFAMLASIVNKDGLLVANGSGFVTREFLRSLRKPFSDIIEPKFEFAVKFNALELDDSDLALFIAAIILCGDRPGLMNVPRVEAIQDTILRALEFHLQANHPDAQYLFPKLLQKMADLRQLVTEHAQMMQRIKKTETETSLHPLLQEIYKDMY
In short: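 Antagonist-mode beta-lactamase reporter screen: HEK293H cells with UAS-bla under PPARd control, stimulated by 300 nM L165041 (final) alongside test compound for 17 h at 37 C, then FRET fluorescence after 2 h substrate incubation.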

[15] = target: Nuclear receptor subfamily 1 group I member 2 (Homo sapiens) (UniProt O75469); test: Human pregnane X receptor (PXR) small molecule agonists, qHTS assay (AID 1346982); also: potency is read from the fitted curve at half-maximal effect; nearly all actives have a fitted effect of over 35% in size
Chain of UniProt O75469 (O75469 whole entry, looked up): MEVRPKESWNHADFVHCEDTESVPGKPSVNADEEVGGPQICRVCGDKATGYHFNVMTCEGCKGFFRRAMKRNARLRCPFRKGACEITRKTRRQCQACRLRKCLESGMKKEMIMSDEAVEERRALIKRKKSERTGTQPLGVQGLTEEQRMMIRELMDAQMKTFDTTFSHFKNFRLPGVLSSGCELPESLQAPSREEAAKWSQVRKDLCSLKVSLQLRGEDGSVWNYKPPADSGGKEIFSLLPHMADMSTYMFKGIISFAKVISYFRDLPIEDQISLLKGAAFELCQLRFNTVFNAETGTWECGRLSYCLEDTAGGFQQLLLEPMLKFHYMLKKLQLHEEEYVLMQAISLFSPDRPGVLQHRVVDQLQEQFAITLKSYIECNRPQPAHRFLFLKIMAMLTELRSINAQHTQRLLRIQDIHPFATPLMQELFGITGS
In short: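 Luminescence (ONE-Glo, 30 min RT) after 24 hr compound exposure of PXR-Luc HepG2 cells; cells rested 5 hr post-plating in 5% charcoal-stripped FBS medium.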

[16] = qHTS assay to identify small molecule agonists of the farnesoid-X-receptor (FXR) signaling pathway - cell viability counter screen (AID 743218); conditions: FXR-bla HEK293T viability, CellTiter-Glo luminescence, 16 h; viability change, negative = cytotoxic: at 62.6 µM (top of the series); also: potency is read from the fitted curve at half-maximal effect; nearly all actives have a fitted effect of over 45% in size
In short: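 In GeneBLAzer FXR-UAS-bla HEK 293T cells, compounds act for 16 h at 37 C. Cell viability is then scored in the reporter wells by CellTiter-Glo, 30 min at RT, luminescence.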

[17] = target: Estrogen receptor beta (Homo sapiens) (UniProt Q92731); test: qHTS assay to identify small molecule agonists of the estrogen receptor beta (ER-beta) signaling pathway (AID 1259377; active = well fitted activation curve with a large enough effect in the signal ratio in the repeat runs, not every such curve was filed as active; inconclusive = weak or mixed curves, or effect the other way; the % refers to the signal ratio; also: potency is read from the fitted curve at half-maximal effect); conditions: ER-beta-UAS-bla HEK293T, beta-lactamase FRET ratio, 16 h; activation: at 92.4 µM (top of the series) unless noted
Chain of UniProt Q92731 (Q92731 whole entry, looked up): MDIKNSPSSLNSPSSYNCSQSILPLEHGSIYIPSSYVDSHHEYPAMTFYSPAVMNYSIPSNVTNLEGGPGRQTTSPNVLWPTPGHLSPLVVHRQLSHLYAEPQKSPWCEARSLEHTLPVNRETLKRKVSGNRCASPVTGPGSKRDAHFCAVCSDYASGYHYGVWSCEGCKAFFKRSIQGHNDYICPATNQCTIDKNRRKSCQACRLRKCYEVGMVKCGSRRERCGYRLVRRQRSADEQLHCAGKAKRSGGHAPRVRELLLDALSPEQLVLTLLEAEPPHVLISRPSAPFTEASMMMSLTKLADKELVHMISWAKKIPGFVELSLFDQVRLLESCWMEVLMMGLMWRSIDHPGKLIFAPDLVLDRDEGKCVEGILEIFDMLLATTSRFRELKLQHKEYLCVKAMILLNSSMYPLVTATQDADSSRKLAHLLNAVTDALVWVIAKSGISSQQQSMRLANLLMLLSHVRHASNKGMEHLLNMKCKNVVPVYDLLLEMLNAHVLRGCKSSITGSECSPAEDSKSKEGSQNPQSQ
In short: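 Measured by fluorescence intensity from a B/G FRET beta-lactamase substrate (2 h, room temperature) in ER-beta-UAS-bla HEK293T cells treated with DMSO-dissolved compounds for 16 hr at 37C and 5% CO2.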

[18] = qHTS assay to identify small molecule agonists of the estrogen receptor beta (ER-beta) signaling pathway - cell viability counter screen (AID 1259380); also: % is scaled to controls: 0 for no effect and ±100 for the full control effect; nearly all actives have a fitted effect of over 30% in size
In short: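 Viability of ER-beta-UAS-bla HEK293T cells was determined by CellTiter-Glo luminescence following 16 hr treatment with test compounds at 37C.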
Tags tell the direction and shape of the fitted curve or compound fluorescence and quenching.

**Q.** With `Clc1ccc(C2(Cn3cncn3)CC(Br)CO2)c(Cl)c1` (stereo not drawn) as the compound, how does the Potency [1] read?
**A.** inactive

**Q.** And the Potency [2]?
**A.** inconclusive: 61.3 µM

**Q.** What about the Potency [3] of the same compound?
**A.** inactive

**Q.** What about the Potency [4] of the same compound?
**A.** inconclusive: 68.2 µM [cytotoxic, partial curve, poor fit]

**Q.** And the Potency [5]?
**A.** active: 112 µM

**Q.** What about the Potency [6] of the same compound?
**A.** active: 27.4 µM

**Q.** And the Potency [7]?
**A.** active: 27.4 µM

**Q.** And the Potency [8]?
**A.** inactive

**Q.** And the Potency [9]?
**A.** inconclusive: 12.1 µM [rising, full curve, poor fit]

**Q.** What about the Potency [10] of the same compound?
**A.** inconclusive: 24.2 µM [rising, partial curve]

**Q.** With `CCOC1Oc2ccc(OS(C)(=O)=O)cc2C1(C)C` (stereo not drawn) as the compound, how does the Potency [11] read?
**A.** active: 54 µM

**Q.** What about the Potency [6] of the same compound?
**A.** inconclusive: 21.7 µM [cytotoxic, partial curve]

**Q.** What about the Potency [12] of the same compound?
**A.** inconclusive: 19.3 µM [cytotoxic, partial curve]

**Q.** And the Potency [7]?
**A.** inconclusive: 19.3 µM [cytotoxic, partial curve]

**Q.** What about the Potency [9] of the same compound?
**A.** inconclusive: 8.56 µM [rising, full curve]

**Q.** And the Potency [10]?
**A.** inconclusive: 21.5 µM [rising, partial curve, poor fit]

**Q.** What about the Potency [13] of the same compound?
**A.** inactive

**Q.** Which ratio activity, negative = inhibition [14] does the source give for `ClCCCCl` here?
**A.** inconclusive: -1.76% [at 80.4 µM]

**Q.** Which results are given for `CCCCc1c(C)nc(NCC)[nH]c1=O`?
**A.** Potency [14]: inactive; Potency [6]: inconclusive: 17.4 µM [cytotoxic, full curve]; Potency [12]: inconclusive: 17.4 µM [cytotoxic, full curve]; Potency [7]: inconclusive: 19.5 µM [cytotoxic, partial curve]; Potency [10]: inactive; Potency [15]: inconclusive: 43.3 µM [activator, partial curve, poor fit]

**Q.** With `O=c1[nH]c2ccccc2n1C1CCNCC1` as the compound, how does the Potency [4] read?
**A.** inactive

**Q.** And the Potency [9]?
**A.** inconclusive: 15 µM [rising, partial curve, poor fit]

**Q.** For `C=C(C)CCl`, which activation [1] is on record?
**A.** inconclusive: 3.08%

**Q.** What about the Potency [2] of the same compound?
**A.** inconclusive: 0.49 µM [cytotoxic, full curve]

**Q.** And the Potency [12]?
**A.** inconclusive: 18.7 µM [rising, single point]

**Q.** What about the Potency [7] of the same compound?
**A.** inconclusive: 21 µM [rising, single point]

**Q.** And the Potency [8]?
**A.** inconclusive: 3.44 µM [inhibitor, single point]

**Q.** What about the Potency [13] of the same compound?
**A.** inactive

**Q.** What does the source list for `CC(C)(C)OOC(=O)c1ccccc1`?
**A.** Potency [16]: inconclusive: 0.0014 µM [rising, full curve, poor fit]; Potency [17]: active: 61.2 µM and inactive

**Q.** With `CCS(=O)(=O)CCSP(=O)(OC)OC` as the compound, how does the Potency [14] read?
**A.** inactive

**Q.** And the Potency [7]?
**A.** inactive

**Q.** With `CCOC(=O)C(SP(=S)(OC)OC)c1ccccc1` (stereo not drawn) as the compound, how does the Potency [16] read?
**A.** inconclusive: 1.95 µM [rising, full curve]

**Q.** What about the Potency [5] of the same compound?
**A.** inconclusive: 1.79 µM [cytotoxic, single point]

**Q.** What about the Potency [15] of the same compound?
**A.** inconclusive: 0.77 µM [activator, partial curve, poor fit]

**Q.** What does the source list for `CCN(CC)Cc1nccn1-c1ccc([N+](=O)[O-])cc1C(=O)c1ccccc1Cl`?
**A.** Potency [11]: inconclusive: 33.5 µM [cytotoxic]; Potency [4]: inconclusive: 29.8 µM [cytotoxic, partial curve]; Potency [9]: inconclusive: 33.5 µM [cytotoxic, single point]; Potency [15]: active: 10.6 µM

**Q.** Which results are given for `Cc1cc(Cl)ccc1O[C@H](C)C(=O)O`?
**A.** Potency [4]: inactive; Potency [17]: inconclusive: 30.6 µM [rising, partial curve]

**Q.** Which Potency [1] does the source give for `Nc1ncc([N+](=O)[O-])s1` here?
**A.** inactive

**Q.** And the activity, negative = inhibition [2]?
**A.** inconclusive: -0.231% [at 79.1 µM]

**Q.** What about the Potency [14] of the same compound?
**A.** inconclusive: 0.0155 µM [fluorescent, full curve, poor fit]

**Q.** What about the Potency [16] of the same compound?
**A.** inconclusive: 0.0014 µM [rising, full curve, poor fit]

**Q.** What about the Potency [3] of the same compound?
**A.** inactive

**Q.** What about the Potency [5] of the same compound?
**A.** inactive

**Q.** And the activation [17]?
**A.** inconclusive: 9.95%

**Q.** What about the Potency [18] of the same compound?
**A.** inactive

**Q.** Which results are given for `CCOC(=O)NC(=S)Nc1ccccc1NC(=S)NC(=O)OCC`?
**A.** Potency [1]: active: 61.1 µM; Potency [6]: inconclusive: 34.7 µM [cytotoxic, partial curve]; Potency [7]: inconclusive: 38.9 µM [cytotoxic, partial curve]; Potency [18]: inactive; Potency [9]: inconclusive: 68.6 µM [cytotoxic, single point]
